Out of some 110,000 compounds screened, about 230 (0.21%) showed an effect of 50% or more. Some of the results follow.
The compounds below were run against DPAP1 (Plasmodium falciparum, UniProt Q8IIJ9) (assay: primary screen, percent inhibition; read by cleavage of a fluorogenic dipeptide substrate; higher = more effect of the substance).
Sequence of DPAP1 (Q8IIJ9 whole entry, looked up): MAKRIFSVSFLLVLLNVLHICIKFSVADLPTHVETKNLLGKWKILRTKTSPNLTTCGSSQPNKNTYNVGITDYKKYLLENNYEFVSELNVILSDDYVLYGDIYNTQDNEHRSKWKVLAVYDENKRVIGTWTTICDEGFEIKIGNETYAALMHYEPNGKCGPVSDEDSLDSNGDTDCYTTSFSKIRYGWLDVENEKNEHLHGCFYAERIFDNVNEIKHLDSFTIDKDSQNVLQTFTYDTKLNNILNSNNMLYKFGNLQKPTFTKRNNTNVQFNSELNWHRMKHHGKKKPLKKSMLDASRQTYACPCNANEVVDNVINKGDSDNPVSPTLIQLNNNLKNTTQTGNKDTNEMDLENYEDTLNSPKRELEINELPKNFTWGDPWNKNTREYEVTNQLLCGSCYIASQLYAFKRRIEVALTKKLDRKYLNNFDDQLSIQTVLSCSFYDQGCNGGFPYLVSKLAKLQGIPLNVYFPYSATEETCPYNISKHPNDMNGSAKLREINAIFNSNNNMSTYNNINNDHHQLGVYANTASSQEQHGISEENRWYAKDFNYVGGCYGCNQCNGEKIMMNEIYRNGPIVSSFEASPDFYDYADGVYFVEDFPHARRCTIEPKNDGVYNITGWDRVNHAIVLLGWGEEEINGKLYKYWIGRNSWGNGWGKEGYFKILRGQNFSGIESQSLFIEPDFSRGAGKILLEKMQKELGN
Parameters: species or system P. falciparum D10 trophozoite lysates; single well
In the case of `CCCC(NC(=O)C(Cc1c(F)cccc1F)NC(=O)c1ccc(-c2ccccc2Cl)cc1)C(=O)c1nc2ccccc2o1` (centres unmarked), the “% Inhibition @ 10 uM” value is reported as -0.207%. With `CCC(C)NC(=O)C1CCCCN1S(=O)(=O)c1ccc(F)cc1` (centres unmarked) the “% Inhibition @ 10 uM” value was 2.64%. In the case of `COc1cc2nc(O)cc(O)c2cc1OC`, the “% Inhibition @ 10 uM” value is reported as -0.233%. In the case of `Cc1cc(C)cc(NS(=O)(=O)c2ccc(NS(=O)(=O)c3ccc(Cl)cc3)cc2)c1`, the “% Inhibition @ 10 uM” value is reported as -1.11%. For `Cc1cc(C)n(-c2ccc(CC(=O)O)cc2)c(=O)n1`, the “% Inhibition @ 10 uM” value was 1.9%. `O=C1NC(=O)/C(=C\c2cccc(C(F)(F)F)c2)S1` was tested, and the “% Inhibition @ 10 uM” value was 4.54%. With `COC(=O)c1sccc1NC(=O)c1cnn(-c2ccc(C)cc2)c1-n1cccc1` the “% Inhibition @ 10 uM” value was -7.05%. `COc1ccc(C2CC(=O)C(/C=N/c3ccc(Br)cc3)=C(O)C2)cc1` (centres unmarked) was tested, and the “% Inhibition @ 10 uM” value was -1.84%. In the case of `CC1(C)CC(NS(=O)(=O)c2ccccc2)CC(C)(CNS(=O)(=O)c2ccccc2)C1` (centres unmarked), the “% Inhibition @ 10 uM” value is reported as 5.97%. With `O=C(NCc1ccc2c(c1)OCO2)c1cc(-c2ccccc2F)no1` the “% Inhibition @ 10 uM” value was -2.07%. In the case of `COc1ccc(S(=O)(=O)N2CCC(C(=O)Nc3ccc(NC(C)=O)cc3)CC2)cc1`, the “% Inhibition @ 10 uM” value is reported as -1.07%. With `Cc1cccc(OCCn2cnc3ccccc32)c1` the “% Inhibition @ 10 uM” value was 2.73%. With `COc1ccc(-c2cn3nc(N4CCCC(C(=O)N(C)Cc5ccccc5)C4)sc3n2)cc1` (centres unmarked) the “% Inhibition @ 10 uM” value was 3.21%. `O=C(CCN1C(=O)c2cccc3cccc(c23)C1=O)N1CCN(c2ccccc2F)CC1` was tested, and the “% Inhibition @ 10 uM” value was -3.12%. In the case of `CCCc1cc(O)n2nc(NCc3ccccc3C)nc2n1`, the “% Inhibition @ 10 uM” value is reported as -4.19%. With `O=C(c1ccccc1)N1CC(COc2ccccc2)OC(c2ccccc2O)O1` (centres unmarked) the “% Inhibition @ 10 uM” value was -1.98%. With `O=C(Nc1cccc(Cl)c1Cl)c1ccccc1Br` the “% Inhibition @ 10 uM” value was 1.4%. In the case of `CC1CCN(C(=O)CSc2ncnc3sc4c(c23)CCCC4)CC1`, the “% Inhibition @ 10 uM” value is reported as 0.161%. `O=C(O)C1CCN(c2nc3ccccc3n3cccc23)CC1` was tested, and the “% Inhibition @ 10 uM” value was 3.04%. For `O=C1C(Cl)=C(Nc2ccccc2O)C(=O)N1c1ccc(Br)cc1`, the “% Inhibition @ 10 uM” value was 2.36%. With `N#CCNC(=O)C(CC1CCCCC1)C(=O)N1CCc2ccccc21` (centres unmarked) the “% Inhibition @ 10 uM” value was -6.98%. For `Cn1c(=O)[nH]c(=O)c2c1nc(N1CCOCC1)n2CC(O)COc1cccc2ccccc12` (centres unmarked), the “% Inhibition @ 10 uM” value was -10.9%. In the case of `CCCCCNC(=O)c1cc2c(=O)n3cccc(C)c3nc2n1C`, the “% Inhibition @ 10 uM” value is reported as -5.01%. For `CCCC(C)NC(=O)c1cccc(OC)c1` (centres unmarked), the “% Inhibition @ 10 uM” value was -6.77%. For `CC(=C1C(=O)c2ccccc2C1=O)N1CCC(Cc2ccccc2)CC1`, the “% Inhibition @ 10 uM” value was -0.169%. `CN1C(=O)COc2ccc(-c3cn(C)c(=O)c4ccccc34)cc21` was tested, and the “% Inhibition @ 10 uM” value was 4.77%. In the case of `O=C(CCc1ccccc1)Nc1c2c(nn1-c1ccc(Cl)cc1)CS(=O)(=O)C2`, the “% Inhibition @ 10 uM” value is reported as 3.8%. With `COc1ccc(-c2nc(CSc3nncn4c3cc3sccc34)c(C)o2)cc1` the “% Inhibition @ 10 uM” value was 5.18%. In the case of `COc1ccc(-n2cc(Cl)nc(N3CCC[C@H]3C(=O)O)c2=O)cc1`, the “% Inhibition @ 10 uM” value is reported as -0.25%. For `Cc1cc(O)c2c(C)c(CC(=O)NCCc3ccccc3)c(=O)oc2c1`, the “% Inhibition @ 10 uM” value was 4.13%. In the case of `Cc1ccc(C2=NC3(CCN(C(=O)c4ccc5c(c4)OCO5)CC3)NC2=O)cc1`, the “% Inhibition @ 10 uM” value is reported as 2.36%. `COc1ccccc1COC(=O)N[C@@H](CC(C)C)C(=O)NCC#N` was tested, and the “% Inhibition @ 10 uM” value was 12.5%. `COc1cccc(S(=O)(=O)Nc2ccc3c(c2)OCCO3)c1` was tested, and the “% Inhibition @ 10 uM” value was -3.29%. `Brc1ccc(OCCCCCCN2CCCC2)cc1` was tested, and the “% Inhibition @ 10 uM” value was -0.351%. `O=C1c2ccccc2C(=O)N1CCCn1nnc2sc(-c3ccccc3)cc2c1=O` was tested, and the “% Inhibition @ 10 uM” value was 7.04%. In the case of `CS(=O)(=O)n1nc(-c2ccco2)nc1NCc1ccccc1`, the “% Inhibition @ 10 uM” value is reported as 0.248%. For `CCn1c(C)c(C)c2cc(C(=O)NCCC(C)C)ccc21`, the “% Inhibition @ 10 uM” value was 1.78%. `O=C(CSc1ccccn1)N1CCc2ccccc2C1` was tested, and the “% Inhibition @ 10 uM” value was -0.68%. With `Cc1ccccc1CNC(=O)CCn1c(=O)c2cccn2c2cccnc21` the “% Inhibition @ 10 uM” value was 6.15%. In the case of `O=C(/C=C/c1ccc2c(c1)OCO2)Nc1cccc(Cl)c1`, the “% Inhibition @ 10 uM” value is reported as -2.18%. In the case of `Nc1c(C(=O)Nc2ccc3c(c2)OCO3)sc2nc(-c3ccc4c(c3)OCO4)ccc12`, the “% Inhibition @ 10 uM” value is reported as 5.12%. For `O=C1CN(C(=O)C2CCCCC2)C=CN1CCc1ccccc1`, the “% Inhibition @ 10 uM” value was -2.39%. For `COc1ccc(C(=O)N(C(=O)c2ccc(OC)c(OC)c2)c2cc(C)ccn2)cc1OC`, the “% Inhibition @ 10 uM” value was 0.413%. With `Cc1c(C(=O)N(C)C23CC4CC(CC(C4)C2)C3)c(-c2ccccc2)nn1-c1ccccc1` the “% Inhibition @ 10 uM” value was -2.56%. With `CCOC(=O)NCCCCNC(=O)c1c(O)oc2ccccc2c1=O` the “% Inhibition @ 10 uM” value was 2.25%. With `Nc1ccc(C(=O)C(=O)c2ccccc2)cc1` the “% Inhibition @ 10 uM” value was 0.0451%. For `COc1ccc(S(=O)(=O)N(CC(=O)N2CCN(c3ccccc3)CC2)Cc2ccccc2)cc1`, the “% Inhibition @ 10 uM” value was 3.24%. With `COC(=O)c1c(NC(=O)C(F)(F)F)sc(Cc2ccccc2)c1C` the “% Inhibition @ 10 uM” value was -0.053%. For `O=[N+]([O-])c1ccc(S(=O)(=O)NCCCN2CCOCC2)cc1`, the “% Inhibition @ 10 uM” value was 3.25%. With `O=c1c2ccccc2cnn1Cc1nnc(S)n1-c1ccc(F)c(Cl)c1` the “% Inhibition @ 10 uM” value was 19.9%.
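Note: 30 min substrate incubation versus DMSO and 10 µM JCP410 controls.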
